# Laboratory results published in PubChem BioAssay AID1457 (National Center for Advancing Translational Sciences (NCATS), 2008).
# Several values for one entry are separate records, joined by “and”; a condition that tells them apart may be missing. Identical values can stand only once. Hit rate of the full screen: of about 210,000 compounds, about 730 (0.35%) were called active. Inconclusive means that the source gave no clear call. Such entries were picked first, then a sample of the others. Calls follow the shape of the dose curve; as a rule, active = well fitted inhibition curve with a large enough effect; inconclusive = small, poorly fitted or top-dose-only effect; inactive = no such curve, though single readings can be large or run the other way. A potency beside an inconclusive call is a rough fit, not a confirmed value.
# Experiment: qHTS Assay for Identifying the Cell-Membrane Permeable IMPase Inhibitors: Potentiation with Lithium; also: nearly all actives have a fitted effect of over 50% in size;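 as to activity, negative = IMPase inhibition: plate controls were basal vehicle for no effect and high inhibitor control for full effect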
# Settings: CHO-M1 cells, IP1 TR-FRET (IP-One), carbachol + lithium; series mostly up to 59.4 µM; activity, negative = IMPase inhibition: at the top concentration
# Text: NIH Chemical Genomics Center [NCGC]
# NIH Molecular Libraries Probe Production centers Network [MLPCN]
# Assay Submitter (PI): Wei Zheng
# Lithium has been widely used for the treatment of bipolar disorder. But lithium has a narrow therapeutic index and it can cause side effects such as thirst, weight gain, tremor, polyuria and memory problems. Although the mechanism for lithium action in treatment of bipolar disorder is still not fully understood, inhibition of inositol monophosphatase (IMPase) and the subsequent depletion of the inositol pool in living cells have been implicated as the primary therapeutic benefit of lithium therapy. Therefore, a selective IMPase inhibitor with reduced side effects might be a good drug candidate to replace lithium for the treatment of bipolar disorder. Several IMPase inhibitors have been discovered previously. However, they are not suitable for therapeutic use because of their poor cell membrane penetrability or oral bioavailability; the development of new cell-permeable IMPase inhibitors is needed.
# IMPase catalyzes the hydrolysis of inositol-1-phosphate (IP1) to release free inositol. Binding of an agonist to a Gq coupled GPCR results in the activation of PLC, which hydrolyzes the PIP2 to form inositol-1,4,5-trisphosphate (IP3) and diacyl glycerol (DAG). While DAG activates protein kinase C (PKC), IP3 triggers the elevation of intracellular free Ca2+. The IP3 is very rapidly inactivated by hydrolysis to IP2, IP1 and then inositol by a series of enzymes including IMPase. Free inositols are used for synthesis of PI and thus start another inositol cycle.
# To identify new cell-permeable IMPase inhibitors, we developed a cell-based IMPase assay in which the cytosolic IP1 is measured by a time-resolved fluorescence resonance energy transfer (TR-FRET) assay. In this assay, an IP1 specific antibody is used to detect the labeled IP1 tracer. When the cell lysate contains the elevated IP1 due to the inhibition of IMPase, the TR-FRET between the labeled antibody and IP1 tracer is disrupted resulting in a reduction in the total signal. Since the TR-FRET is used, this cell-based assay is a homogenous assay without cell wash and medium change that is suitable for assay miniaturization and HTS. In this particular assay, a small amount of lithium is added to potentiate the response of weak activators.
# NCGC Assay Protocol Summary:
# A Chinese hamster ovary (CHO) cell line stably expressing the M1 receptor (CHO-M1) was obtained from ATCC and maintained in F-12 Kaighn's media (Invitrogen, Carlsbad, CA) supplemented with 10 % FBS, 100 units/ml penicillin, 100 ug/ml streptomycin and 250 ug/ml geneticin at 37C, 5% CO2 in a humidified atmosphere. Before the assay, aliquots of cells were frozen and stored at -135C. The assay was performed in 1536-well format. Data are reported for both the ratio of the two emission wavelengths, and also for the component 'donor' channel, Em2=620. […] AC50 values were determined from concentration-response data modeled with the standard Hill equation.
# (1) Frozen CHO-M1 cells were thaw, washed once with fresh media and resuspended in F12K media containing 10% FBS, 100 units/ml penicillin and 100 ug/ml streptomycin. Cells were plated at 4ul/well (2000 cells) in white, tissue culture treated 1536-well plates, and then cultured at 37C, 5 % CO2 for 16 to 30 hours.
# (2) Add 23 nl/well of compound in DMSO solution. The final titration for each compound was between 0.6 nM and 46 uM.
# (4) Incubation at 37C, 5 % CO2 for 30 min.
# (5) Add 1 ul/well of d2-conjugated IP1 (d2-IP1) and 1 ul/well of Eu+ cryptate conjugated anti-IP1 antibody (Eu+-Ab) prepared in the cell lysis buffer, both from the IP-One kit (Cisbio, MA).
# (6) Incubate at room temperature for 10 minutes.
# (7) Detect the assay plate (Ex = 320, Em1 =665 and Em2 620) in a ViewLux plate reader.
# Potency is read from the fitted curve at half-maximal effect.
SMILES,Potency,"activity, negative = IMPase inhibition"
CCCCNC(=S)N1CCn2cccc2C1c1cccnc1 (centres undefined),"inconclusive: 5.01 µM [inhibitor, single point]",–
CCCCNC(=O)/C(C#N)=c1\s/c(=C\c2ccccc2OC(F)F)c(=O)n1CCCOC,"inconclusive: 11.2 µM [inhibitor, single point]",–
COC(=O)C1CN(C#N)N(c2ccc(Cl)cc2)C12c1ccccc1-c1ccccc12 (centres undefined),–,inactive: 18.4%
O=C(NC1CN2CCC1CC2)c1ccc(-c2ccc([N+](=O)[O-])cc2)o1 (centres undefined),–,inactive: 10.1%
COP(=O)(OC)c1nc(-c2cccc3ccccc23)oc1N1CCOCC1,"inconclusive: 25.1 µM [inhibitor, single point]",–
COCCCn1c(N)c(C(=O)OCCOC)c2nc3ccccc3nc21,"inconclusive: 11.2 µM [inhibitor, single point]",–
Cc1cc2c(C(F)(F)F)cc(=O)oc2c2c1NCCC2,"inconclusive: 15.8 µM [inhibitor, partial curve]",–
Cc1c(C(c2ccccc2Cl)c2c(O)c3ccccc3oc2=O)c(=O)n(-c2ccccc2)n1C (centres undefined),–,inactive: 0.0689%
CC1CCCCN1CC(=O)c1ccc2cc[nH]c2c1 (centres undefined),"inconclusive: 0.501 µM [inhibitor, full curve]",–
NNc1nncn1N,–,inactive: -8.66%
CCC1CN(C)CCC1(OC(C)=O)c1ccccc1 (centres undefined),–,inactive: 3.44%
COc1ccc(N2C(=O)CC(N3CCC(n4c(=O)[nH]c5ccccc54)CC3)C2=O)cc1 (centres undefined),–,inactive: 9.75% [at 38.3 µM]
Cc1ccc(-n2c(-c3nn(C)c(C)c3Cl)n[nH]c2=S)cc1,"inconclusive: 8.91 µM [inhibitor, partial curve]",–
CC(C)(C)c1ccccc1O,–,inactive: -5.09%
COc1cc(CN2C(=O)NC(=O)C3(Cc4cc(C)ccc4N(C)C3)C2=O)cc(OC)c1 (centres undefined),–,inactive: 14.3% [at 38.3 µM]
CN1CCN(C2=Nc3cc(Cl)ccc3Nc3ccccc32)CC1,"inconclusive: 4.47 µM [inhibitor, single point] and inconclusive: 5.62 µM [inhibitor, full curve, poor fit]",–
COc1cccc(Oc2c(C)oc3cc(OC(=O)N(C)C)ccc3c2=O)c1,"inconclusive: 28.2 µM [inhibitor, single point]",–
CC(C)CC(N)C1(c2ccc(Cl)cc2)CCC1 (centres undefined),–,inactive: 3.2%
CCSC(=O)Cl,–,inactive: -4.78%
O=C1NC(=O)N(c2ccc(Br)cc2)C(=O)/C1=C/c1ccsc1,–,inactive: 4.36%
O=C(Oc1c(Br)cc(Br)c2cccnc12)N1CCCCC1,active: 12.6 µM,–
O=C(Cn1cc(C(=O)c2ccccc2F)c2ccccc21)NCc1ccco1,active: 8.91 µM,–
Nc1c(C(=O)OCC2CCCO2)c2nc3ccccc3nc2n1Cc1cccs1 (centres undefined),"inconclusive: 31.6 µM [inhibitor, single point]",–
CN1CCN(c2ccc(NC(=O)C(C)(C)C)cc2)CC1,–,inactive: 7.83% [at 38.3 µM]
COCCCNC(=O)c1c(NC(=O)c2ccccc2Cl)n(Cc2ccccc2)c2nc3ccccc3nc12,"inconclusive: 28.2 µM [inhibitor, single point]",–

SMILES,Potency,"activity, negative = IMPase inhibition"
CC(C)(C)NC(=O)C1CC2CCCCC2CN1 (centres undefined),"inconclusive: 0.398 µM [inhibitor, full curve, poor fit]",–
CCCCn1c(NS(=O)(=O)c2ccccc2)c(C(=O)OCC)c2nc3ccccc3nc21,"inconclusive: 11.2 µM [inhibitor, partial curve]",–
CCOC(=O)C1=C(N)Oc2ccccc2C12C(=O)N(CC(=O)OC)C(CC(=O)OC)=C2C(=O)OC (centres undefined),–,inactive: -1.61% [at 38.3 µM]
COCCNC(=O)c1ccc(N2CC3CC(C2)c2cccc(=O)n2C3)c([N+](=O)[O-])c1 (centres undefined),"inconclusive: 3.55 µM [inhibitor, single point]",–
CCOC(=O)c1cc(C)sc1/N=C/C1C(=O)NC(=S)NC1=O,"inconclusive: 28.2 µM [inhibitor, single point]",–
c1ccc(N2CCCC3(CCNCC3)C2)nc1,–,inactive: 8.39%
O=P(O)(O)c1ccccc1 (tested in a mixture with another compound),"inconclusive: 5.01 µM [inhibitor, single point]",–
COc1ccc(CN2C(=O)NC(=O)/C(=C\c3cc(OC)c(OC)c(OC)c3)C2=O)cc1,–,inactive: -1.75%
CN[C@H](Cc1ccccc1)c1cccc(OC)c1O,–,inactive: 0.392%
O=c1[nH]c(=O)n(Cc2ccccc2Cl)c(O)c1C=Nc1ccc(F)cc1,"inconclusive: 11.2 µM [inhibitor, single point]",–
CN(C)CCc1ccc(O)cc1,–,inactive: 14%
Cc1cc(C)cc(NC(=O)Cn2c(=O)oc3cc(S(=O)(=O)N4CC(C)CC(C)C4)ccc32)c1 (centres undefined),"inconclusive: 28.2 µM [inhibitor, single point]",–
CCCNc1oc(-c2cccc3ccccc23)nc1C#N,"inconclusive: 31.6 µM [inhibitor, partial curve]",–
CC[C@@]1(O)C(=O)OCc2c1cc1n(c2=O)-c2cc3ccccc3nc2C1,"inconclusive: 12.6 µM [inhibitor, partial curve]",–
CN(C)C=O,"inconclusive: 6.31 µM [inhibitor, partial curve]",–
CN(C(=O)Cc1ccc(Cl)c(Cl)c1)C(CN1CCCC1)c1cccc(N=C=S)c1 (centres undefined),–,inactive: 36.2%
COCCOC(=O)C1=C(N)OC(C)=C(C(=O)OC)C12C(=O)Nc1ccccc12 (centres undefined),–,inactive: 1.64% [at 38.3 µM]
CC(=O)c1cn(Cc2ccccc2C#N)c2ccccc12,"inconclusive: 28.2 µM [inhibitor, single point]",–
C[C@@H]1Cc2c(Cl)cc(C(=O)N[C@@H](Cc3ccccc3)C(=O)O)c(O)c2C(=O)O1,"inconclusive: 17.8 µM [inhibitor, partial curve]",–
O=c1c2ccccc2nc(-c2ccccc2)n1-c1cccc(O)c1,–,inactive: 7.28%
O=C(c1cccn2c(=O)c3cc(Cl)ccc3nc12)N1CCC2(CC1)OCCO2,"inconclusive: 11.2 µM [inhibitor, partial curve]",–
COc1ccc(C2(C#N)CC[N+](C)(C)CC2)cc1,"inconclusive: 0.316 µM [inhibitor, full curve, poor fit]",–
O=P1(NC2CCCC2)COc2ccccc2OC1,"inconclusive: 10 µM [inhibitor, single point]",–
CCC(=O)Nc1ccc(Cl)c(Cl)c1,–,inactive: 4.98%
